Assay results taken from PMC12820563.
The other results are listed elsewhere or left out. The list includes weakly bound sequences.

target: T1, MBP-FoxP3dN (UniProt Q99JB6); assay: PD-seq (MBP pull-down with sequencing); conditions: 20 mM Tris-HCl pH 7.5, 100 mM NaCl, 1.5 mM MgCl2, 0.4 uM protein, 0.1 uM dsDNA library, 30 min, room temperature, amylose pull-down; high values mean tight binding; double strand, one strand shown
T1 sequence: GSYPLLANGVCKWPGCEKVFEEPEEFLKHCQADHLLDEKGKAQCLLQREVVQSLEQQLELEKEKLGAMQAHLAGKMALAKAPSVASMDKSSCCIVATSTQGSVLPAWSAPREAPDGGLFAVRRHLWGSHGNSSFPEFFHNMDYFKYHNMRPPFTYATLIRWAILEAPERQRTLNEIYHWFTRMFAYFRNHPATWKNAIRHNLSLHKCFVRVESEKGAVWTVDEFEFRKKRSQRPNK

Sequence | binding signal (RPM ratio (pull-down/input))
GATGATTGTTCTCCCAGCTGATGAATTGCAGGCTTCGAGTAAACAAATTTTCCTAATCTTTCTGTTCAAGCGCCATCTAC | 0.738
GATGATTGTTCTCCCAGCTGATGAATTAAAGGAATCGAGTAAACAAATTTTCCTAATCTTTCTGTTCAAGCGCCATCTAC | 0.217
GATGATTGTTCTCCCAGCTGATGAATTGAGCACCTCGAGTAAACAAATTTTCCTAATCTTTCTGTTCAAGCGCCATCTAC | 0.853
GATGATTGTTCTCCCAGCTGATGAATTGACCTCTTCGAGTAAACAAATTTTCCTAATCTTTCTGTTCAAGCGCCATCTAC | 0.288
GATGATTGTTCTCCCAGCTGATGAATTCAGTTCCTCGAGTAAACAAATTTTCCTAATCTTTCTGTTCAAGCGCCATCTAC | 0.923
GATGATTGTTCTCCCAGCTGATGAATTCGGTGACTCGAGTAAACAAATTTTCCTAATCTTTCTGTTCAAGCGCCATCTAC | 0.958
GATGATTGTTCTCCCAGCTGATGAATTAAGAATCTCGAGTAAACAAATTTTCCTAATCTTTCTGTTCAAGCGCCATCTAC | 1.59
GATGATTGTTCTCCCAGCTGATGAATTGGCCTTTTCGAGTAAACAAATTTTCCTAATCTTTCTGTTCAAGCGCCATCTAC | 1.07
GATGATTGTTCTCCCAGCTGATGAATTAGCCAAATCGAGTAAACAAATTTTCCTAATCTTTCTGTTCAAGCGCCATCTAC | 0.246
GATGATTGTTCTCCCAGCTGATGAATTACATCGGTCGAGTAAACAAATTTTCCTAATCTTTCTGTTCAAGCGCCATCTAC | 0.432
GATGATTGTTCTCCCAGCTGATGAATTGGCCGGGTCGAGTAAACAAATTTTCCTAATCTTTCTGTTCAAGCGCCATCTAC | 0.185
GATGATTGTTCTCCCAGCTGATGAATTGACCTTCTCGAGTAAACAAATTTTCCTAATCTTTCTGTTCAAGCGCCATCTAC | 0.306
GATGATTGTTCTCCCAGCTGATGAATTGATGTTGTCGAGTAAACAAATTTTCCTAATCTTTCTGTTCAAGCGCCATCTAC | 2.55
GATGATTGTTCTCCCAGCTGATGAATTATGCGGATCGAGTAAACAAATTTTCCTAATCTTTCTGTTCAAGCGCCATCTAC | 0.753
GATGATTGTTCTCCCAGCTGATGAATTATACGAGTCGAGTAAACAAATTTTCCTAATCTTTCTGTTCAAGCGCCATCTAC | 0.404
GATGATTGTTCTCCCAGCTGATGAATTTGGTGATTCGAGTAAACAAATTTTCCTAATCTTTCTGTTCAAGCGCCATCTAC | 1.66

Sequence | binding signal (RPM ratio (pull-down/input))
GATGATTGTTCTCCCAGCTGATGAATTTACCGGATCGAGTAAACAAATTTTCCTAATCTTTCTGTTCAAGCGCCATCTAC | 0.251
GATGATTGTTCTCCCAGCTGATGAATTGCCACCGTCGAGTAAACAAATTTTCCTAATCTTTCTGTTCAAGCGCCATCTAC | 0.928
GATGATTGTTCTCCCAGCTGATGAATTAGTTGGCTCGAGTAAACAAATTTTCCTAATCTTTCTGTTCAAGCGCCATCTAC | 3.39
GATGATTGTTCTCCCAGCTGATGAATTCTGGGCCTCGAGTAAACAAATTTTCCTAATCTTTCTGTTCAAGCGCCATCTAC | 0.36
GATGATTGTTCTCCCAGCTGATGAATTGCGATGCTCGAGTAAACAAATTTTCCTAATCTTTCTGTTCAAGCGCCATCTAC | 1.38
GATGATTGTTCTCCCAGCTGATGAATTTAGCCTATCGAGTAAACAAATTTTCCTAATCTTTCTGTTCAAGCGCCATCTAC | 2.18
GATGATTGTTCTCCCAGCTGATGAATTTGAGCTATCGAGTAAACAAATTTTCCTAATCTTTCTGTTCAAGCGCCATCTAC | 0.575
GATGATTGTTCTCCCAGCTGATGAATTATGAATATCGAGTAAACAAATTTTCCTAATCTTTCTGTTCAAGCGCCATCTAC | 0.727
GATGATTGTTCTCCCAGCTGATGAATTATGGCGATCGAGTAAACAAATTTTCCTAATCTTTCTGTTCAAGCGCCATCTAC | 0.831
GATGATTGTTCTCCCAGCTGATGAATTAGACTACTCGAGTAAACAAATTTTCCTAATCTTTCTGTTCAAGCGCCATCTAC | 0.476
GATGATTGTTCTCCCAGCTGATGAATTGACCCTCTCGAGTAAACAAATTTTCCTAATCTTTCTGTTCAAGCGCCATCTAC | 0.32
GATGATTGTTCTCCCAGCTGATGAATTGCCAGTTTCGAGTAAACAAATTTTCCTAATCTTTCTGTTCAAGCGCCATCTAC | 0.628
GATGATTGTTCTCCCAGCTGATGAATTCAGCTCGTCGAGTAAACAAATTTTCCTAATCTTTCTGTTCAAGCGCCATCTAC | 0.502
GATGATTGTTCTCCCAGCTGATGAATTAAGAGTATCGAGTAAACAAATTTTCCTAATCTTTCTGTTCAAGCGCCATCTAC | 0.587
GATGATTGTTCTCCCAGCTGATGAATTCTGGTATTCGAGTAAACAAATTTTCCTAATCTTTCTGTTCAAGCGCCATCTAC | 1.22
GATGATTGTTCTCCCAGCTGATGAATTGACTCCATCGAGTAAACAAATTTTCCTAATCTTTCTGTTCAAGCGCCATCTAC | 0.407
